# Test results reported in PubChem BioAssay AID463173 (ICCB-Longwood Screening Facility, Harvard Medical School, 2010).
# In all, about 52,000 compounds went through this assay and about 1,700 (3.3%) were called active. Rule as the data show it: active = survival mostly below about 52% (no sharp cut-off); inactive = mostly above about 56%. The list shows a part of the results.
# System: Wild type
# Test: S. aureus survival, RN4220 and DeltatarO strains – OD600, teichoic acid synthesis inhibitors, primary screen (AID 463173)
# Conditions: S. aureus RN4220 wild type/DeltatarO growth, OD600, 18 h, active compounds read low, screened at 18.75 µg/mL (by protocol)
row,SMILES,survival
1,COC(=O)c1ccc(Cl)cc1NC(=O)NC(C)c1c(-n2cccc2)sc(C)c1C (stereo not drawn),active: 12%
2,O=c1c2c3c(sc2n(Cc2ccccc2F)c(=O)n1-c1ccc(Cl)cc1)CCCC3,inactive: 95%
3,CNC(=O)C1CCC(Cn2c(=O)c3sccc3n(CC(=O)N3CCC(C)CC3)c2=O)CC1 (stereo not drawn),inactive: 49%
4,Cc1ccc(-n2ncc(C(=O)NCc3ccco3)c2C2CCN(C(=O)OC(C)(C)C)CC2)cc1,inactive: 70%
5,Cc1cc(C)c(Cn2c(=O)n(CCCC(=O)NCc3ccc4c(c3)OCO4)c(=O)c3sccc32)c(C)c1,inactive: 92%
6,Cc1ccc2nc(Cl)c3cc(C(=O)N4CCCCC4)sc3c2c1,active: -2%
7,COC(=O)c1cc(S(=O)(=O)NCC2CCN(Cc3cccc(F)c3)CC2)cn1C,inactive: 124%
8,Cn1c(=O)c2c(-c3ccc(Cl)cc3)n(CCc3ccccc3)cc2n(C)c1=O,inactive: 134%
9,COc1ccc(N2CCN(Cc3nc4c(c(=O)[nH]c(=O)n4C)n3Cc3ccccc3F)CC2)cc1,inactive: 130%
10,COc1ccc(CCNC(=O)c2cc(=O)c3cc(C)c(C)cc3o2)cc1OC,inactive: 85%
11,COc1ccc(N(C(=O)Cn2nnc3ccccc32)C(C(=O)NCc2ccccc2)c2ccc(F)cc2)cc1 (stereo not drawn),inactive: 84%
12,Cn1nnc2c(NCc3c(F)cccc3F)ncnc21,inactive: 66%
13,COc1ccc(CNC(=O)CN2CC(C)CC(C)C2)c(OC)c1 (stereo not drawn),inactive: 114%
14,Cn1c(=O)c2c(nc(SCC(=O)Nc3ccc(F)c(F)c3)n2Cc2ccccc2F)n(C)c1=O,inactive: 110%
15,CCc1ccc(C(=O)CC2(O)C(=O)N(CCc3ccccc3)c3ccc(Cl)cc32)cc1 (stereo not drawn),active: 5%
16,Cc1nnc(Sc2nc(Sc3nnc(C)s3)nc(N3CCCCC3)n2)s1,inactive: 102%
17,COc1ccc(CCNC(=O)C(=O)NCC(c2cccs2)S(=O)(=O)c2ccc(F)cc2)cc1 (stereo not drawn),inactive: 73%
18,COc1ccc(NC(=O)CN2CCC(n3c(C)nc4cc(F)ccc43)CC2)c(OC)c1,inactive: 114%
19,O=C(NCCc1ccc(Cl)cc1)C1CCN(S(=O)(=O)c2ccc3[nH]ccc3c2)CC1,inactive: 73%
20,COc1ccc(-c2noc(CNC(=O)COc3cccc(C)c3C)n2)cc1,inactive: 81%
21,O=C(COCc1cc(-c2ccc3c(c2)OCO3)on1)Nc1cc(Cl)ccc1O,inactive: 47%
22,CC(C)c1ccc(Nc2c(-c3ccccn3)nc3ccccn23)cc1,active: -21%

row,SMILES,survival
1,CCOC(=O)c1c(C)oc2nc(C)nc(NCCCN3CCN(c4cc(C)ccc4C)CC3)c12,inactive: 105%
2,COc1ccc(-c2nc(CSCC(=O)NCc3ccccc3Cl)c(C)o2)cc1OC,inactive: 70%
3,C=CCNC(=O)C(C)N1CCN(C)CC1 (stereo not drawn),inactive: 95%
4,COc1cc(NC(=O)C2CCN(S(=O)(=O)c3c(C)noc3/C=C/c3ccccc3F)CC2)cc(OC)c1OC,inactive: 64%
5,COc1cccc(/C=C/c2nc(C#N)c(N3CCN(C)CC3)o2)c1,inactive: 83%
6,CC(NC(=O)c1ccc2c(c1)sc1nc(-c3ccc(F)cc3)cn12)C12CC3CC(CC(C3)C1)C2 (stereo not drawn),inactive: 101%
7,FC(F)(F)c1cccc(Nc2c3c(nc4ccc(Cl)cc24)CCC3)c1,active: 5%
8,CCCCCN1C(C(=O)c2ccccc2)=C(OC(=O)CC)c2ccccc2S1(=O)=O,active: -4%
9,COc1cc(OC)c(NC(=O)CCc2c(C)nc3c4c(C)cc(C)nc4nn3c2C)cc1Cl,inactive: 78%
10,Cc1ccc(CCNC(=O)c2ccc(Nc3nc4ccccc4n4nnnc34)cc2)cc1,inactive: 74%
11,N#Cc1cc2c(=O)n3ccccc3nc2n(-c2nnc(SCc3ccccc3Cl)s2)c1=O,inactive: 99%
12,CCN(CCCNC(=O)Cn1ncc2c([nH]c3ccc(C)cc32)c1=O)c1ccccc1,inactive: 111%
13,CCC(Sc1nc2n[nH]c(C)c2c(=N)n1-c1ccccc1Cl)C(=O)N(CC)CC (stereo not drawn),inactive: 131%
14,Cc1cccc(NC(=O)c2cc3c(=O)n(Cc4cccnc4)ccc3nc2C)c1,active: -3%
15,COc1ccc(NC(=O)CCn2cnc3onc(-c4ccc(F)cc4)c3c2=O)cc1OC,inactive: 123%
16,CC1Cn2c(C(=O)NCc3ccccc3Cl)cc3cccc(c32)S1 (stereo not drawn),inactive: 72%
17,O=C(NCCO)c1ccc2nc(-c3ccco3)c(-c3ccco3)nc2c1,inactive: 111%
18,CCCOc1ccc(C(=O)N(Cc2ccco2)Cc2ccco2)cc1,inactive: 92%
19,O=C(NCC(c1cccs1)S(=O)(=O)c1cccs1)c1c(F)cccc1F (stereo not drawn),inactive: 71%
20,CC(C)c1nn2c(=O)cc(COC(=O)c3ccc(NC(=O)c4cccs4)cc3)nc2s1,inactive: 73%
21,Cc1ccc(S(=O)(=O)NCCc2nnc3ccc(SCC(=O)Nc4ccc(F)cc4F)nn23)cc1,inactive: 89%
22,COc1ccc(CCNC(=O)CCc2c(C)nc3cc(-c4cccc(F)c4)nn3c2C)cc1OC,inactive: 138%

row,SMILES,survival
1,CCOC(=O)Cn1c(=O)n(CC2CCCO2)c2nc(-c3cc(OC)ccc3OC)nc(C(N)=O)c21 (stereo not drawn),inactive: 129%
2,Cc1ccccc1OCC(=O)Nc1ccccc1OCc1cc(=O)n2ccccc2n1,inactive: 87%
3,COc1ccc(OC(=O)c2nc(SCc3ccccc3C)ncc2Cl)cc1,inactive: 96%
4,Cc1cc(C)c2c(CC(=O)Nc3cc(C(F)(F)F)ccc3Cl)coc2c1,inactive: 95%
5,COc1cccc(CSc2nc3n(n2)C(CC(C)C)C(C(=O)Nc2ccccc2C)=C(C)N3)c1 (stereo not drawn),inactive: 85%
6,COc1ccc(C(=O)Nc2cccc(C(=O)OCc3cc(=O)n4c5c(sc4n3)CCCC5)c2)cc1,inactive: 75%
7,Cc1ccc(CCNC(=O)CCCc2nnc3n(C)c(=O)c4sccc4n23)cc1,inactive: 83%
8,COc1ccccc1-n1c(=O)n(C)c2c(C(N)=O)nc(-c3cccc(OC)c3OC)nc21,inactive: 84%
9,O=C(C1CCCN(S(=O)(=O)c2cccc3nsnc23)C1)N1CCN(c2cccc(Cl)c2)CC1 (stereo not drawn),inactive: 63%
10,CCN(CC)c1nn2c(=O)c(C(=O)NCCc3cccc(C)c3)cnc2s1,inactive: 73%
11,Cc1ccc2nc(-c3ccccn3)c(Nc3ccccc3C)n2c1,active: 18%
12,CCCN1CCc2nc(N3CCN(C)CC3)ncc2C1,inactive: 119%
13,COc1ccc(-c2noc(CSc3nc4ccccc4[nH]3)n2)cc1OC,inactive: 72%
14,CCc1cccc(C)c1NS(=O)(=O)c1ccc2c(c1)CC(C)N2C(=O)C1CC1 (stereo not drawn),inactive: 80%
15,Cc1cccc(Cn2c(=O)n(-c3ccccc3C)c(=O)c3c2c2cc(C)ccc2n3C)c1,inactive: 74%
16,Fc1cccc(CSc2ccc(-c3cccs3)nn2)c1,inactive: 86%
17,COc1ccc(S(=O)(=O)NCCc2csc3nc(-c4ccccc4)nn23)cc1OC,inactive: 71%
18,CCN1C(=O)C(O)(c2c[nH]c3ccccc23)c2cc(Br)ccc21 (stereo not drawn),inactive: 72%
19,Cc1ccc2oc3c(c(=O)c2c1)C(c1ccc(O)cc1)N(c1nc(C)c(C)s1)C3=O (stereo not drawn),inactive: 135%
20,CCC(=O)N1c2ccccc2CC1C(=O)NCc1cc(Br)ccc1OC (stereo not drawn),inactive: 127%
21,COc1ccccc1C(=O)N(c1ccc(C)cc1)S(=O)(=O)c1ccc(Cl)cc1,inactive: 71%
22,Cc1ccc(CNc2nc3ccccc3n3cnnc23)cc1,inactive: 88%

row,SMILES,survival
1,Cc1csc2nc(COC(=O)c3ccc(NC(=O)C(C)Oc4ccccc4)cc3)cc(=O)n12 (stereo not drawn),inactive: 159%
2,CCC(=O)Nc1nnc(S(=O)(=O)N2c3ccccc3CC2C)s1 (stereo not drawn),inactive: 84%
3,CCCC1=Nc2cc(C(=O)N3CCC(C(=O)OCC)CC3)ccc2Sc2ccccc21,inactive: 75%
4,O=C(OC(C(=O)NC1CCCC1)c1ccccn1)c1cccs1 (stereo not drawn),inactive: 109%
5,COc1ccc(NC(=O)c2cnc(N3CCCC3)nc2)cc1OC,inactive: 66%
6,Cc1cccc(NC(=O)C2CCCN2S(=O)(=O)c2ccc3c(c2)n(C)c(=O)c(=O)n3C)c1 (stereo not drawn),inactive: 81%
7,Cc1cc(C)c2oc(-c3cccc(NC(=O)c4ccc(-c5cccc([N+](=O)[O-])c5)o4)c3)nc2c1,inactive: 66%
8,O=C(NCc1cccc(F)c1)c1ccccc1NC(=O)c1nsc2ccccc12,inactive: 120%
9,O=C(c1ccccc1)N1CCc2cc(CNS(=O)(=O)c3ccc(Cl)s3)ccc21,inactive: 66%
10,CCNC(=O)c1ccc(C2SCC(=O)N2Cc2ccco2)cc1 (stereo not drawn),inactive: 110%
11,O=C(CCSCc1cccc(Cl)c1)NCCc1ccc(Cl)cc1,inactive: 67%
12,COc1ccc(-n2c(SCC(=O)NCc3ccc(F)cc3)nc3c([nH]c4ccccc43)c2=O)cc1,inactive: 79%
13,Cc1oc(-c2ccc(Cl)cc2)nc1Cn1c(=O)cc(C)c2c(C)nn(-c3ccccc3)c21,inactive: 83%
14,Cc1nn2cc(-c3ccc(OC(C)C)cc3)nc2s1,inactive: 85%
15,Cn1c(=O)n(C)c2cc(N3CCOCC3)c(NS(=O)(=O)c3cccc(C#N)c3)cc21,inactive: 76%
16,COc1ccccc1CNC(=O)CCCCn1c(=O)c2ccccc2n(Cc2ccccc2F)c1=O,inactive: 116%
17,CC(=O)Nc1cccc(NC(=O)Cn2cnc3c(oc4ccccc43)c2=O)c1,inactive: 97%
18,Cc1ccc(CNC(=O)CSc2nc3ccccc3nc2Cc2ccc(C)cc2)cc1,inactive: 78%
19,CCOc1ccc(NC(=O)c2c(C)oc3nc(C)nc(N4CCOCC4)c23)cc1,inactive: 74%
20,Cc1ccc(CCNC(=O)C2CCN(S(=O)(=O)c3ccc4c(ccn4C)c3)CC2)cc1,inactive: 83%
21,Cc1ccc(-c2nc3c4c(-c5ccccc5)c(-c5ccccc5)oc4ncn3n2)cc1,inactive: 72%
22,Cc1cccc(-c2nc3c(cnn3-c3ccccc3)c(=O)n2-c2ccc(Cl)cc2)c1,inactive: 82%
